{
  "source": "paper PMC4336329",
  "about": "(PLoS ONE, 2015)",
  "note": "Screen size: about 310,000 compounds; about 14,000 (4.5%) showed an effect of 50% or more. The effect is printed as a negative number. The list shows a part of the results.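 Also: peak tail current of the secondary pulse compared with the same well before compound.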",
  "data": [
    {"target": "human ether-à-go-go-related gene (hERG) potassium channel (human, UniProt Q12809)", "sequence (Q12809 whole entry, looked up)": "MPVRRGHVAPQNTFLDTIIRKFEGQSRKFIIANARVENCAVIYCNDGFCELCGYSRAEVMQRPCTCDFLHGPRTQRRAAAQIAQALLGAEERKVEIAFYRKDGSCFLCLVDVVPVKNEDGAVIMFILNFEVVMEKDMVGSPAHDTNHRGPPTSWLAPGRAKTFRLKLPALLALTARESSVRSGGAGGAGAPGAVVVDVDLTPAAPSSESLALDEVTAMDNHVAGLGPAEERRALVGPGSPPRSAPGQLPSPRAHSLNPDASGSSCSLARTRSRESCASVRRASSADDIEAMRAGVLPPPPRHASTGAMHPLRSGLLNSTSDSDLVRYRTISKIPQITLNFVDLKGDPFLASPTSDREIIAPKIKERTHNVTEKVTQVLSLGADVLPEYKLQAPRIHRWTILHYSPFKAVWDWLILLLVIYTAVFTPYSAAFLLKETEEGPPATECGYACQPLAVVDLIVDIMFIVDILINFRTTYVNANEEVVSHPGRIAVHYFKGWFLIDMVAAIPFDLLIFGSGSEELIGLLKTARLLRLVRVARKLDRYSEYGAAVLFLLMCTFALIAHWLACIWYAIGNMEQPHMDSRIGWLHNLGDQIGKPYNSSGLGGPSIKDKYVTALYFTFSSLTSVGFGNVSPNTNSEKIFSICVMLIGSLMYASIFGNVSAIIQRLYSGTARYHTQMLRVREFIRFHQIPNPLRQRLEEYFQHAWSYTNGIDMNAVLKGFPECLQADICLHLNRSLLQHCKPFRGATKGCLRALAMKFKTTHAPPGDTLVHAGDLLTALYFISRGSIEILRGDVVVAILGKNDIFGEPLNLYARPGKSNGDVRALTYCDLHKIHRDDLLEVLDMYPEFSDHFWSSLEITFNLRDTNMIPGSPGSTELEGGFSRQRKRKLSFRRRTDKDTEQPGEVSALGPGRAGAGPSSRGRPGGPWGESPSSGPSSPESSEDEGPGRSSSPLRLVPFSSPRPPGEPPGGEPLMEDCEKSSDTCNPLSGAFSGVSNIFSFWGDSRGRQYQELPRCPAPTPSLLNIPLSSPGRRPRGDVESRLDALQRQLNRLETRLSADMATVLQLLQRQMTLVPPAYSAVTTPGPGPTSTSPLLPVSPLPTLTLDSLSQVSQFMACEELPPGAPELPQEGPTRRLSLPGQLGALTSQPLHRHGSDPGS", "test": "primary screen, population patch clamp on CHO cells stably expressing hERG", "units": {"hERG current change (%, negative = inhibition) at 10uM": "%"}, "values": [
      {"smiles": "Cc1cccc(CS(=O)(=O)c2ncc(Cl)c(C(=O)Nc3ccc(F)cc3)n2)c1", "hERG current change (%, negative = inhibition) at 10uM": 21.6},
      {"smiles": "CC12CC[C@H]3[C@@H](CCC4(O)C[C@H](O)CCC34/C=N/NC(=O)c3ccccc3O)C1(O)CCC2C1=CC(=O)OC1", "note": "(stereo partly drawn)", "hERG current change (%, negative = inhibition) at 10uM": 4.9},
      {"smiles": "COC(=O)C1=C(c2ccc(-c3ccccc3)c(F)c2)C[C@@H]2CC[C@H]1N2C(=O)NC1Cc2ccccc2C1", "hERG current change (%, negative = inhibition) at 10uM": 23.2},
      {"smiles": "COc1ccc(CCNCc2ccc(OCc3ccccc3)cc2)cc1", "hERG current change (%, negative = inhibition) at 10uM": -41.6},
      {"smiles": "Cc1noc(C)c1C(=O)Nc1ccccc1-c1ccccc1", "hERG current change (%, negative = inhibition) at 10uM": 13.3},
      {"smiles": "CC(C)(C)c1nc(C(C)(C)C)c(Br)c(=O)[nH]1", "hERG current change (%, negative = inhibition) at 10uM": 2.34},
      {"smiles": "O=C(COC(=O)CCCc1nc2ccccc2s1)Nc1ncc(Cl)cc1Cl", "hERG current change (%, negative = inhibition) at 10uM": 1.26},
      {"smiles": "Nn1cnc2scc(-c3cccs3)c2c1=O", "hERG current change (%, negative = inhibition) at 10uM": 16.3},
      {"smiles": "Cn1c(N)c(C(=O)CN2CCc3ccccc3C2)c(=O)n(C)c1=O", "hERG current change (%, negative = inhibition) at 10uM": -36.3},
      {"smiles": "COc1ccc(-c2nnc(Nc3ccc(CC(N)=O)cc3)c3ccccc23)cc1", "hERG current change (%, negative = inhibition) at 10uM": -14.1},
      {"smiles": "COCC(C)n1c(-c2ccc3c(c2)NC(=O)CO3)csc1=Nc1ccc(OC(F)F)cc1", "note": "(stereo not drawn)", "hERG current change (%, negative = inhibition) at 10uM": 2.76},
      {"smiles": "O=C(CSc1nc(=O)n2ccccc2n1)N1CCC(Cc2ccccc2)CC1", "hERG current change (%, negative = inhibition) at 10uM": -58.1},
      {"smiles": "Cc1ccc2cccc(OC(=O)c3ccc4c(c3)OCCO4)c2n1", "hERG current change (%, negative = inhibition) at 10uM": -5.66},
      {"smiles": "CNc1nc(-c2c[nH]c3ccccc23)cs1", "hERG current change (%, negative = inhibition) at 10uM": -2.45},
      {"smiles": "Cc1cc2nc(-c3ccc(SCc4ccccc4C#N)nc3)[nH]c2cc1C", "hERG current change (%, negative = inhibition) at 10uM": 0.0557},
      {"smiles": "Cc1cc(C)n(-c2cccc(F)n2)n1", "hERG current change (%, negative = inhibition) at 10uM": 31.7},
      {"smiles": "CC(C)CCNC(=O)c1ccc(Cl)c(NC(=O)Cc2ccccc2)c1", "hERG current change (%, negative = inhibition) at 10uM": -9.16},
      {"smiles": "CCCCNC(=S)N(C)/N=C/c1c(F)c(F)c(F)c(F)c1F", "hERG current change (%, negative = inhibition) at 10uM": -7.73},
      {"smiles": "CC(C)(C)c1ccc(OCC(O)CS(=O)(=O)c2ccccn2)cc1", "note": "(stereo not drawn)", "hERG current change (%, negative = inhibition) at 10uM": -4.33},
      {"smiles": "CCNc1c(NS(=O)(=O)c2ccc(C3CCCCC3)cc2)c(=O)oc2ccccc12", "hERG current change (%, negative = inhibition) at 10uM": 21.5},
      {"smiles": "C[C@H]1[C@@H](OC(=O)CCC(=O)O)O[C@@H]2O[C@@]3(C)CC[C@H]4[C@H](C)CC[C@@H]1[C@@]24OO3", "hERG current change (%, negative = inhibition) at 10uM": 1.58},
      {"smiles": "CCC(=O)Oc1ccc(C2NC(=O)c3ccccc3O2)cc1OC", "note": "(stereo not drawn)", "hERG current change (%, negative = inhibition) at 10uM": 21},
      {"smiles": "COc1ccc2[nH]c(=O)c(CN(CCc3ccccc3)C(C)=O)cc2c1", "hERG current change (%, negative = inhibition) at 10uM": -21.7},
      {"smiles": "CSC1=NC(=O)/C(=C\\c2cccc3ccccc23)S1", "hERG current change (%, negative = inhibition) at 10uM": 17.8},
      {"smiles": "O=C(Nc1ccccn1)c1cc2cc([N+](=O)[O-])ccc2s1", "hERG current change (%, negative = inhibition) at 10uM": 27.1},
      {"smiles": "Cc1ccc(-n2c(O)c(C=Nc3ccc(S(N)(=O)=O)cc3)c(=O)[nH]c2=O)cc1", "hERG current change (%, negative = inhibition) at 10uM": 14.9},
      {"smiles": "O=C(NCCCc1ccccc1)C1CCN(S(=O)(=O)c2ccc(F)cc2)CC1", "hERG current change (%, negative = inhibition) at 10uM": -60.7},
      {"smiles": "CCn1c(C(=O)OC)cc2c1ccn2-c1ccc(F)cc1", "hERG current change (%, negative = inhibition) at 10uM": 20.1},
      {"smiles": "CC(C)CNC(CC(=O)Nc1cccc([N+](=O)[O-])c1)C(=O)O", "note": "(stereo not drawn)", "hERG current change (%, negative = inhibition) at 10uM": -1.01},
      {"smiles": "Cc1ccc2nc3c(c(N)c2c1)CCN3c1ccccc1.O=C(O)C(=O)O", "hERG current change (%, negative = inhibition) at 10uM": -35.4},
      {"smiles": "CCCc1ccc2oc(C(=O)N3CCCC3)c(C)c2c1", "hERG current change (%, negative = inhibition) at 10uM": -7.11},
      {"smiles": "CCOc1ccccc1N1CCN(Cc2cn[nH]c2-c2ccc(F)cc2)CC1", "hERG current change (%, negative = inhibition) at 10uM": -72.3},
      {"smiles": "COc1ccc2cc(/C=C3\\SC(=S)NC3=O)c(N3CCOCC3)nc2c1", "hERG current change (%, negative = inhibition) at 10uM": 17.5},
      {"smiles": "Cc1ccc(C)c(S(=O)(=O)NCc2ccc(C(=O)N3CCC(Cc4ccccc4)CC3)cc2)c1", "hERG current change (%, negative = inhibition) at 10uM": 5.28},
      {"smiles": "COc1ccc(C(CNC(=O)CNC(=O)c2cccc(C)c2)N2CCOCC2)cc1", "note": "(stereo not drawn)", "hERG current change (%, negative = inhibition) at 10uM": 9.11},
      {"smiles": "O=C(Nc1ccc(F)cc1Cl)c1ccc2c(=O)n3c(nc2c1)CCCCC3", "hERG current change (%, negative = inhibition) at 10uM": -4.13},
      {"smiles": "CCCCN1C(=O)C(C)=C(C)C1OCCc1ccc(OC)c(OC)c1", "note": "(stereo not drawn)", "hERG current change (%, negative = inhibition) at 10uM": 18.2},
      {"smiles": "Cc1ccccc1C(=O)NN(C)c1nc2ccccc2nc1C(F)(F)F", "hERG current change (%, negative = inhibition) at 10uM": 17.3},
      {"smiles": "Cn1nc(C(F)(F)F)c2cc(C(=O)Nc3ccc(F)cc3F)sc21", "hERG current change (%, negative = inhibition) at 10uM": -0.969},
      {"smiles": "O=C(COC(=O)[C@H](Cc1ccccc1)NC(=O)c1ccco1)NC(c1ccccc1)c1ccccc1", "hERG current change (%, negative = inhibition) at 10uM": -6.39},
      {"smiles": "COc1ccc(/C=c2/sc3nc(-c4ccccc4)c(-c4ccccc4)n3c2=O)cc1", "hERG current change (%, negative = inhibition) at 10uM": -13.9},
      {"smiles": "O=C(N/N=C/c1ccco1)c1cc(-c2cccs2)[nH]n1", "hERG current change (%, negative = inhibition) at 10uM": 1.93},
      {"smiles": "COc1cc2c(cc1OC)[C@H](C)N(C(=O)NCc1ccccc1)CC2", "hERG current change (%, negative = inhibition) at 10uM": 5.78},
      {"smiles": "CCN1C(=O)CCC(C(=O)O)C1c1ccc(OC)cc1", "note": "(stereo not drawn)", "hERG current change (%, negative = inhibition) at 10uM": 13.1},
      {"smiles": "O=C(NCC(c1cccs1)N1CCOCC1)c1cc([N+](=O)[O-])cc([N+](=O)[O-])c1", "note": "(stereo not drawn)", "hERG current change (%, negative = inhibition) at 10uM": 5.88},
      {"smiles": "CCOC(=O)c1[nH]c(C)c(/C(O)=C2\\C(=O)C(=O)N(CCN(C)C)C2c2ccc(C)o2)c1C", "note": "(stereo not drawn)", "hERG current change (%, negative = inhibition) at 10uM": 14.6},
      {"smiles": "COc1ccc(C(=O)Nc2nc(CC(=O)NCCc3cccc(OC)c3)cs2)cc1", "hERG current change (%, negative = inhibition) at 10uM": -20.7},
      {"smiles": "Clc1cccc(Cl)c1-c1nnc2ccc(N3CCOCC3)nn12", "hERG current change (%, negative = inhibition) at 10uM": 1.97},
      {"smiles": "O=C(O)c1cc(-c2cccs2)nn1-c1cccc(Cl)c1", "hERG current change (%, negative = inhibition) at 10uM": 17.8},
      {"smiles": "O=C(COc1ccccc1)NC(Cc1c[nH]c2ccccc12)C(=O)O", "note": "(stereo not drawn)", "hERG current change (%, negative = inhibition) at 10uM": -17.8},
      {"smiles": "COCCCn1c(CCC(=O)O)ccc1-c1cccs1", "hERG current change (%, negative = inhibition) at 10uM": -4.51},
      {"smiles": "CN(/N=C/c1ccc(C(C)(C)C)cc1)C1=NCCN1", "hERG current change (%, negative = inhibition) at 10uM": -71.6},
      {"smiles": "CCOc1ccc(NC(=O)CC2C(=O)N(c3ccc(OC)c(Cl)c3)C(=S)N2C2CC2)cc1", "note": "(stereo not drawn)", "hERG current change (%, negative = inhibition) at 10uM": -1.88},
      {"smiles": "CN1CCN(c2ccccc2NC(=O)c2ccc(-c3ccccc3)cc2)CC1", "hERG current change (%, negative = inhibition) at 10uM": -31.6}
    ]}
  ]
}
